Laboratory results reported in PubChem BioAssay (NCATS).
Where “and” joins values, the source holds several entries; their conditions need not be identical. Equal values may be shown once. The inconclusive results got no clear call from the source; some entries with a clear call stand among them for comparison. A potency beside an inconclusive call is a rough fit, not a confirmed value. Calls of active or inactive are those of the source. Calls come from the whole dose curve; as a rule, active = well fitted inhibition curve with a large enough effect; inconclusive = small, poorly fitted or top-dose-only effect; inactive = flat fitted curve, though single readings scatter.

system: HEK293; assay: Cytotoxic Profiling of Annotated Libraries Using Quantitative High-Throughput Screening (AID 1296008); settings: Five cell lines viability, CellTiter-Glo ATP luminescence, 48-72 h; max response: stronger effect = lower value; note: nearly all actives have a fitted effect of over 60% in size
From the text: Cell-based phenotypic screening is a commonly used approach to discover biological pathways, novel drug targets, chemical probes and high-quality hit-to-lead molecules. Many hits identified from high-throughput screening campaign are ruled out through a series of follow-up potency, selectivity/specificity, and cytotoxicity assays. Prioritization of molecules with little or no cytotoxicity for a more in-depth downstream evaluation influence the future direction of projects, so cytotoxicity profiling of the screening libraries at early stage is essential for increasing the likelihood of candidate success. […] For the annotated library, we also examined the primary targets and mechanistic pathways regularly associated with cell death. To our knowledge, this is the first study to use high-throughput screening to profile large libraries for cytotoxicity assessment in both normal and cancer cell lines. In summary, the results generated here constitutes a valuable resource for the scientific community and provides insight on identifying cytotoxic compounds with particular mechanisms of action, and prioritizing compounds with suitable cytotoxicity profile for further evaluation.
A pintool (Kalypsys) was used to transfer 23 nL of compound solution to the 1536-well assay plates. After 48 or 72 hr incubation at 37 degree Celsius, 5% CO2 and 95% humidity, 2.5 uL of CellTiter-Glo (Promega) was dispensed into each well using a dispenser (Aspect Automation, St. Paul, MN) with solenoid valves (Lee Valves, Westbrook CT). Plates were left at room temperature for 10 min before imaging the ATP-coupled luminescence using a ViewLux microplate imager (PerkinElmer, Waltham, MA).
% is set by controls: 0 for no effect and ±100 for the full control effect; potency is the fitted concentration of half-maximal effect; tags give direction and shape of the fitted curve.

| Compound | Potency | max response | outcome |
| --- | --- | --- | --- |
| CC[C@H](Nc1ncnc2nc[nH]c12)c1nc2cccc(F)c2c(=O)n1-c1ccccc1 | inconclusive: 1.74 µM [inhibitor, partial curve] |  |  |
| Nc1nc(N)c2nc(-c3ccccc3)c(N)nc2n1 | inconclusive: 26.6 µM [inhibitor, single point] |  |  |
| C[C@@H]1O[C@@H](O[C@H]2[C@@H]3C=CO[C@@H](O[C@@H]4O[C@H](CO)[C@@H](O)[C@H](O)[C@H]4O)[C@@H]3[C@@]3(CO)O[C@@H]23)[C@H](O)[C@H](OC(=O)/C=C/c2ccc(O)c(O)c2)[C@H]1O |  | inactive: 1.13% |  |
| N#Cc1ccc(N2N=C3c4ccc(C(=O)O)cc4CC[C@@H]3[C@@H]2C2CCCC2)cc1Cl | inconclusive: 18.4 µM [inhibitor, partial curve] |  |  |
| Cc1sc2c(c1C)C(c1ccc(Cl)cc1)=N[C@H](CC(=O)NCCCCNC(=O)COc1cccc3c1C(=O)N([C@H]1CCC(=O)NC1=O)C3=O)c1nnc(C)n1-2 | active: 2.59 µM |  |  |
| O=C(CCCN1CC=C(n2c(=O)[nH]c3ccccc32)CC1)c1ccc(F)cc1 | inconclusive: 23.7 µM [inhibitor, partial curve, poor fit] |  |  |
| Cn1c(=O)c2nc(/C=C/c3cccc(Cl)c3)n(C)c2n(C)c1=O |  |  | inactive |
| Cc1ccc(CCn2c3c(c4cc(Cl)ccc42)CN(C)CC3)cn1 | inconclusive: 33.5 µM [inhibitor, single point] |  |  |
| O=C(NNc1ccccc1)c1ccncc1 | inconclusive: 29.1 µM [inhibitor, single point] |  |  |
| CC1=CC(=O)[C@H]2C(C)(C)CCC[C@]2(C)[C@@]1(O)CO |  | inactive: -15.2% |  |
| O=C(CCCN1CCN(c2ccccn2)CC1)c1ccc(F)cc1 | inconclusive: 26.6 µM [inhibitor, single point] |  |  |
| CC1=C(/C=C/C(C)=C\C=C\C(C)=C/C(=O)O)C(C)(C)CCC1 |  | inactive: 0.159% |  |
| C[C@@H](O[C@H]1OCCN(Cc2nn(P(=O)(O)O)c(=O)[nH]2)[C@H]1c1ccc(F)cc1)c1cc(C(F)(F)F)cc(C(F)(F)F)c1 | inconclusive: 8.93 µM [inhibitor, single point] |  |  |
| COc1cc2nc(Cl)nc(N)c2cc1OC | inconclusive: 26.6 µM [inhibitor, single point] |  |  |
| CC(C)CCCCC(=O)N[C@@H](CO)C(=O)N[C@@H](CC(C)C)C(=O)[C@@]1(CO)CO1 | inconclusive: 29.1 µM [inhibitor, single point] |  |  |
| OC1C=C2C3CN(Cc4cc5c(cc43)OCO5)C2CC1O (stereo not given) | active: 6.51 µM |  |  |
| Cc1ccc2nc(NC(=O)CSc3nc4c(c(=O)n3-c3ccccc3)SCC4)sc2c1 | inconclusive: 5.26 µM [inhibitor, full curve, poor fit] |  |  |
| C=C1C(=O)O[C@@H]2C[C@@]3(C)CCC[C@H](C)C3=C[C@H]12 | inconclusive: 20.6 µM [inhibitor, single point] |  |  |
| COc1c(O)cc2c(c1O)C(=O)O[C@H](C)[C@H]2O |  | inactive: -6.03% |  |
| COc1ccccc1NC(=O)Nc1ccc2ccccc2c1 | inconclusive: 29.1 µM [inhibitor, single point] |  |  |

| Compound | Potency | max response | outcome |
| --- | --- | --- | --- |
| O=C(Cc1c(F)cccc1F)Nc1cc(OCc2ccc(Cl)cc2)ccn1 | inconclusive: 29.1 µM [inhibitor, single point] |  |  |
| CNC(=O)c1cc(Oc2ccc(NC(=O)c3cccc(C(F)(F)F)c3)cc2)ccn1 | inconclusive: 29.1 µM [inhibitor, single point] |  |  |
| Cn1ncc2cc(-c3cnc(N)c(Cl)c3N3CCC4(CCNC4=O)CC3)ccc21 | inconclusive: 29.1 µM [inhibitor, single point] |  |  |
| C=C(C)[C@@H]1CC[C@]2(C(=O)O)CC[C@]3(C(=O)O)[C@H](CCC4[C@@]5(C)CCC(=O)C(C)(C)C5CC[C@]43C)C12 (stereo not given in full) | inconclusive: 7.09 µM [inhibitor, partial curve, poor fit] |  |  |
| O=C(COc1ccc2ccccc2c1Br)Nc1cccnc1 | inconclusive: 20.6 µM [inhibitor, single point] |  |  |
| CC(C(=O)O)c1ccc(/C=C2\CCCCC2=O)cc1 (stereo not given) |  | inactive: -12.2% |  |
| Cc1cc(N)c2ccccc2[n+]1CCCCCCCCCC[n+]1c(C)cc(N)c2ccccc21 | active: 1.3 µM |  |  |
| O=C(NCc1ccccc1)c1ccc2c(=O)n(-c3cccc(C(F)(F)F)c3)c(=S)[nH]c2c1 | inconclusive: 29.1 µM [inhibitor, single point] |  |  |
| CCOc1cc2ncc(C#N)c(Nc3ccc(OCc4ccccn4)c(Cl)c3)c2cc1NC(=O)C=CCN(C)C | active: 3.32 µM |  |  |
| O=C(Nc1cc(C(F)(F)F)cc(C(F)(F)F)c1)c1cc(Cl)ccc1O | active: 590 nM and active: 1.16 µM |  |  |
| CN1C(=O)N[C@@H](Cc2c[nH]c3c(Cl)cccc23)C1=O |  |  | inactive |
| COc1cc(/C=C/C(=O)OC[C@H]2O[C@H](O[C@]3(CO)O[C@H](CO)[C@@H](O)[C@@H]3O)[C@H](O)[C@@H](O)[C@@H]2O)cc(OC)c1O |  |  | inactive |
| O=C(CSc1nc2c(c(=O)n1-c1ccccc1)SCC2)Nc1ccc(-c2ccccc2)cn1 | active: 0.0411 µM |  |  |
| C=CC(=O)N1CCC[C@@H](n2nc(-c3cccc(C(=O)Nc4ccc(C(C)C)c(C)c4)c3)c3c(N)ncnc32)C1 | inconclusive: 18.4 µM [inhibitor, single point] |  |  |
| O=c1nc(-c2ccccn2)sc2ccccc12 | inconclusive: 18.4 µM [inhibitor, single point] |  |  |
| Cc1cccc(C#Cc2cc(F)cc(C#N)c2)n1 | inconclusive: 29.1 µM [inhibitor, single point] |  |  |
| CC1=CC(=O)[C@@]2(C(C)C)C[C@@H]12 | inconclusive: 23.1 µM [inhibitor, single point] |  |  |
| COc1cc2ncnc(Nc3ccc(F)c(Cl)c3)c2cc1O | inconclusive: 18.4 µM [inhibitor, single point] |  |  |
| CN(C)CC(=O)Nc1ccc2[nH]c(=O)c3ccccc3c2c1 | inconclusive: 23.1 µM [inhibitor, single point] |  |  |
| COc1ccc([C@@H]2Sc3ccccc3NC(=O)[C@@H]2O)cc1 | inconclusive: 29.9 µM [inhibitor, single point] |  |  |
